Source: article PMC11381810, “Intermediate steps in the formation of neuronal SNARE complexes” (The Journal of Biological Chemistry, 2024)

Biological target: the molecule itself
Test: DEER; Q-band four-pulse DEER at 50 K, 20% deuterated glycerol, flash frozen; isolated single-labelled SN1 (26 μM for 23R1) or SN2 (31 μM for 173R1)

| Protein | binding result |
| --- | --- |
| SN1 ([…]) D23C, spin-labelled (23R1) (domain or fragment, nitroxide side chain R1 (cysteine reacted with the MTS reagent) at 23, SN1 SNARE domain of SNAP25a (isoform a), Rattus norvegicus, […]; also called 23R1 SN1; spin-labeled SN1; source: E. coli BL21(DE3), purified (Ni2+-NTA, thrombin, anion exchange), spin-labelled) not shown | binds |
| SN1 ([…]) E38C, spin-labelled (38R1) (domain or fragment, nitroxide side chain R1 (cysteine reacted with the MTS reagent) at 38, SN1 SNARE domain of SNAP25a (isoform a), Rattus norvegicus, […]; also called 38R1 SN1; spin-labeled SN1; source: E. coli BL21(DE3), purified (Ni2+-NTA, thrombin, anion exchange), spin-labelled) not shown | binds |
| SN1 ([…]) V48C, spin-labelled (48R1) (domain or fragment, nitroxide side chain R1 (cysteine reacted with the MTS reagent) at 48, SN1 SNARE domain of SNAP25a (isoform a), Rattus norvegicus, […]; also called 48R1 SNAP25 SN1; spin-labeled SN1; source: E. coli BL21(DE3), purified (Ni2+-NTA, thrombin, anion exchange), spin-labelled) not shown | binds |
